Reference: paper PMC4336329 (PLoS ONE, 2015)
About 2,200 (0.71%) of roughly 310,000 compounds showed an effect of 50% or more. The effect is printed as a negative number. The list shows a part of the results.

target: human ether-à-go-go-related gene (hERG) potassium channel (human, UniProt Q12809); test: primary screen, population patch clamp on CHO cells stably expressing hERG
Sequence (Q12809 whole entry, looked up): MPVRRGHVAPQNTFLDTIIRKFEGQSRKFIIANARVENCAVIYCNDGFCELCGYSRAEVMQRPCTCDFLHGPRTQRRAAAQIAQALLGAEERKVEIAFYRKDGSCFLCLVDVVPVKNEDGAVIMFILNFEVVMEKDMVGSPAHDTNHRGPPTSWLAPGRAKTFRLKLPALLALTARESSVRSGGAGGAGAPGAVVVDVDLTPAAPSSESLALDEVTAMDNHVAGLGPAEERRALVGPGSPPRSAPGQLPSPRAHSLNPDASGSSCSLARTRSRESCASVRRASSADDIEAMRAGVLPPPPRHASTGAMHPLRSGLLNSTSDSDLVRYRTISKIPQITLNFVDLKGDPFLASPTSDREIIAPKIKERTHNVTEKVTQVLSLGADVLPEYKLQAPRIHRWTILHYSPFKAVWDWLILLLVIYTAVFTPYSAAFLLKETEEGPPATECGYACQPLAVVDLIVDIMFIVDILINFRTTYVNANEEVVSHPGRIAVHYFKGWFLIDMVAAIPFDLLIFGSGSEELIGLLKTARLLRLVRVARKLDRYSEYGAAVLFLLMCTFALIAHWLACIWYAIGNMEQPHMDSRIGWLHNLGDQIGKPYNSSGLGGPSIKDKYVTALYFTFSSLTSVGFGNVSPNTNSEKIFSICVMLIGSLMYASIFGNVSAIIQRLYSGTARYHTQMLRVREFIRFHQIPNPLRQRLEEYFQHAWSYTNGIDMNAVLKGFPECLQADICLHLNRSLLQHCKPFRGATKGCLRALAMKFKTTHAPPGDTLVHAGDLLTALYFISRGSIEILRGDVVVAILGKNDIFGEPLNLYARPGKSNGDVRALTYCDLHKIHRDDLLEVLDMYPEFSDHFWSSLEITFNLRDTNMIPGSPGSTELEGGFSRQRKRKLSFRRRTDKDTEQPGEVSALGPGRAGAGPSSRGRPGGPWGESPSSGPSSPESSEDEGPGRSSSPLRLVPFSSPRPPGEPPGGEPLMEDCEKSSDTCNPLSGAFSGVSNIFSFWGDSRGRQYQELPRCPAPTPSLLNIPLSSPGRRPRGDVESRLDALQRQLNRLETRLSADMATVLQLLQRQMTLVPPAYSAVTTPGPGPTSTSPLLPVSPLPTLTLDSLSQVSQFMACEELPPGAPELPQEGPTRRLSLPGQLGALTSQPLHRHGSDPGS

SMILES | hERG current change (%, negative = inhibition) at 1uM [%]
COc1ccccc1NS(=O)(=O)c1cccc(C(=O)NNC(=O)C(NC(N)=O)C(C)C)c1 (stereo not drawn) | 10.2
CCc1ccc(NC(=O)c2ccc(OC)c([N+](=O)[O-])c2)cc1 | 4.3
N#CC/C(N)=N/NC(=O)CCCNc1ncc(C(F)(F)F)cc1Cl | 21.5
COc1ccc(NC(=O)CN2CCC3(O)CCCCC3C2c2cc(OC)ccc2OC)cc1 (stereo not drawn) | 0.354
CN1CCN(CCCNC(=O)Cn2ncc3c4ccccc4n(C)c3c2=O)CC1 | 12.3
O=C(CSc1nc(-c2ccco2)cc(C(F)(F)F)n1)NCC1CCCO1 (stereo not drawn) | 5.27
CCOC(=O)C1CCN(Cc2ccc(F)c(F)c2)CC1 | 15.2
Cc1ccc(/C=N/NC(=O)c2cc(C)oc2C)cc1 | 10.3
CC1CCN(C(=O)CSc2ccc(-c3cccc([N+](=O)[O-])c3)nn2)CC1 | -36.7
COc1ccc(/C=C2\CCC/C(=C\C=N\N(C)C)C2=O)cc1 | 6.52
C#CCOc1c(/C=C\c2nc(O)c([N+](=O)[O-])c(=O)[nH]2)cc(Br)cc1OC | 15.8
CC(C)OCCCNC(=O)c1ccc2c(c1)S(=O)(=O)c1ccccc1C2=O | 3.4
O=C(c1ccc(=O)[nH]n1)N1CCN(S(=O)(=O)c2ccc3ccccc3c2)CC1 | 5.65
COC(=O)[C@@]12CCCCN1[C@H](c1ccc(-c3ccc(C(C)=O)cc3)c(OC)c1)[C@@H]1C(=O)N(C)C(=O)[C@@H]12.O=C(O)C(F)(F)F | 15.8
COC(=O)c1[nH]c2ccc(C)cc2c1NC(=O)NC1CCCCC1 | 9.66
O=C(Cc1ccccc1)N1CCCC(c2nc(-c3cccs3)no2)C1 (stereo not drawn) | 3.04
COc1cccc(CNS(=O)(=O)c2c(C(=O)N3CCCCC3)c(C)n(C)c2C)c1 | 14.8
COc1cccc(NC(=O)CN(C)C(C)C(=O)Nc2ccc(C#N)cc2)c1 (stereo not drawn) | -28.5
CCOC(=O)C1(Cc2ccccc2Cl)CCN(C(=O)c2cc(C)on2)CC1 | 7.84

SMILES | hERG current change (%, negative = inhibition) at 1uM [%]
C[N+]1(CCCCCCC(=O)/C=N/O)CCCCCC1.[I-] | 17.4
CN(C)c1ccc(-c2nnn(CC(=O)NCc3ccc4c(c3)OCO4)n2)cc1 | 7.31
COc1ccc(-n2cc(C(=O)O)c(=O)cc2C)cc1 | 8.32
CC(C)(C)c1ccc(NS(=O)(=O)c2ccc(N)cc2)cc1 | 12.3
O=C(c1ccccc1)N1CCN(c2ccc(N3CCOCC3)nn2)CC1 | 13.8
COc1ccc(/C=N/NC(=O)c2nn(-c3ccc(Cl)cc3)c(=O)c3c(N)scc23)cc1 | 2.77
Cc1cc(-c2onc(C)c2C(N)=O)no1 | 12.7
N#Cc1ccccc1Sc1ccccc1C(=O)OCC(N)=O | 13.9
COc1ccc(Cn2ccnc2SCC(=O)Nc2ccccc2F)cc1 | 15.6
Cc1cc(OCc2cc(C(=O)NCCN3CCCCC3CO)no2)cc(C)c1Cl (stereo not drawn) | -7.06
C/C(=C\C(=O)c1ccc(Br)cc1)N1CCCCC1 | 5.38
CCN(CC)S(=O)(=O)c1ccc(OC(C)C)c(N)c1 | -1.66
O=C(CN(c1ccc(F)cc1)S(=O)(=O)c1ccccc1)NCc1ccco1 | 18.5
CSc1ccc(CN(C)C(=O)c2cc(=O)c3ccccc3o2)cc1 | -23
O=C(NC1CCCCC1)N1CCCCCC1 | 6.21
Cc1sc2nc(CSC(C)C(=O)Nc3ccc(C(N)=O)cc3)[nH]c(=O)c2c1C (stereo not drawn) | 7.08
CC(C)C(=O)NNS(=O)(=O)c1ccccc1 | 15.7
COc1cc(/C=C/C(=O)OCC(=O)N2c3ccccc3NC(=O)C2(C)C)cc(OC)c1OC | 3.14
O=C1CCCC(O)=C1N=Nc1ccc2c(c1)OCO2 | 6.26

SMILES | hERG current change (%, negative = inhibition) at 1uM [%]
Cc1cc(C)c(S(=O)(=O)N2CCOCC2)cc1C | 11.3
COc1ccc(Cl)cc1NC(=O)C1CCCO1 (stereo not drawn) | 7.19
Cc1ccccc1C(=O)NC1CCN(CC(=O)NCc2ccc(F)cc2)CC1 | -31.6
CCCC(C)C(=O)Nc1nc(C)c(-c2csc(Nc3ccc(Cl)cc3)n2)s1 (stereo not drawn) | 7.95
Cc1ccc(O)c(N=Cc2ccc(C)s2)c1 | 6.42
O=C(CSc1ncn[nH]1)Nc1nnc(-c2ccccc2)s1 | 6
COc1ccc(CCNC(=O)c2ccc3c(=O)n(Cc4ccco4)c(=S)[nH]c3c2)cc1OC | 13.6
CCc1ccc(N2C(=O)c3sc4nnc(-c5ccccc5)c(=O)n4c3C2=O)cc1 | 7.96
CCCC(c1nnnn1Cc1cccs1)N1CCN(c2ccc(OC)cc2)CC1 (stereo not drawn) | 12
Cn1c(=O)n(C)c2cc(/C=C3/SC(=O)N(CC(=O)N4CCOCC4)C3=O)ccc21 | -0.578
CC(Oc1ccc(-c2nnco2)cc1)C(=O)N1CCOCC1 (stereo not drawn) | 17.5
CC(=O)Nc1ccc(S(=O)(=O)Nc2ccc(S(=O)(=O)Nc3nccs3)cc2)cc1 | 16.4
Cc1cccc(C)c1NCC(=O)N1CCN(Cc2ccccc2)CC1.Cl | 10.6
Cl.NCCC(=O)N1c2ccccc2Sc2ccc(Cl)cc21 | -1.47
Cc1cc(C)c(C#N)c(SCC(=O)CC(=O)OC(C)C)n1 | 5.61
CCc1cccc(C)c1NC(=S)NCc1cccn1C | 6.34
Cc1ccnc(NS(=O)(=O)c2ccc(N=Cc3c(O)n(C)c(=O)n(C)c3=O)cc2)n1 | 6.72
CC(C)c1c(C(=O)N/N=C2\CCc3ccccc32)nnn1-c1nonc1N | 15.4
Br.Cc1ccc2nc(-c3ccc(N4C(=N)SC5CS(=O)(=O)CC54)cc3)sc2c1 (stereo not drawn) | 9.31
